Measurements taken from PubChem BioAssay AID720542 (National Center for Advancing Translational Sciences (NCATS), 2013).
About 740 (0.21%) of roughly 360,000 compounds were called active. Inconclusive results, whose numbers are uncertain, are shown with a selection of clear calls. The call rests on the fitted dose curve; in most records, active means well fitted inhibition curve with a large enough effect; inconclusive means small, poorly fitted or top-dose-only effect; inactive means no such curve, though single readings can be large or run the other way. No potency is given beside an inconclusive call; the fits are too rough.

system: Plasmodium falciparum AMA1 (3D7) - RON2 peptide interaction; test: qHTS for Inhibitors of AMA1-RON; Towards Development of Antimalarial Drug Lead: Primary Screen; conditions: AlphaScreen AMA1-biotinylated RON2 peptide binding; activity change, negative = inhibition: at 58.2 µM (top of the series); further: nearly all actives have a fitted effect of over 45% in size;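 on activity change, negative = inhibition: 0% = vehicle wells and -100% = peptide control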
Summary of the method: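 AMA1 (3D7) with his tag at 25 nM final met compounds first, then biotinylated RON2 peptide at 25 nM; detection used donor plus acceptor beads, 10 µg/mL apiece, read by AlphaScreen after 30 min at room temperature.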
Potency means the concentration at half of the fitted maximal effect; tags describe the fitted curve by direction and shape.

Row | Compound | Potency | activity change, negative = inhibition
1 | CCOc1ccc(C(=O)Nc2nnc(SCC(=O)NCC3CCCO3)s2)cc1OCC (centres undefined) | inactive | 
2 | CCn1c(SCC(=O)N2CCN(c3cccc(Cl)c3)CC2)nc2ccccc2c1=O | inconclusive [inhibitor, partial curve, poor fit] | 
3 | CN1c2ccccc2N(C)C1(C)c1ccccc1 | inconclusive [inhibitor, single point] | 
4 | Cc1ccc2c(c1C)NC(C(=O)O)C1CC=CC21 (centres undefined) | active: 11.9 µM | 
5 | O=C(C1CC1)N1CCc2cc(Br)cc(S(=O)(=O)N3CCCCCC3)c21 | inactive | 
6 | COc1ccc(S(=O)(=O)N2CCCC(C(=O)Nc3cccnc3)C2)cc1Cl (centres undefined) | inconclusive [inhibitor, partial curve] | 
7 | Cc1c(C)n(Cc2ccc(F)cc2)c2ccc(C(=O)N3CCN(c4ccccn4)CC3)cc12 | inconclusive [inhibitor, partial curve] | 
8 | Cc1oc2c(c1C(=O)c1ccccc1)C(=O)C(=O)c1ccccc1-2 | inconclusive [inhibitor, single point] | 
9 | Cc1cccc(N2CCN(C(=S)c3ccc(-c4ccccc4[N+](=O)[O-])o3)CC2)c1 | inconclusive [inhibitor, partial curve] | 
10 | O=C(NNC(=O)c1ccco1)c1cccc([N+](=O)[O-])c1 | inactive | 
11 | C/C(=C\C(=O)c1ccccc1)Nc1ccc(O)cc1 | inconclusive [inhibitor, partial curve] | 
12 | CCCCn1nnnc1C(c1cccc2ccccc12)N1CCN(C/C=C/c2ccccc2)CC1 (centres undefined) | inconclusive [inhibitor, partial curve] | 
13 | COc1cccc(-n2cc(C(=O)NC(C)C)c3ccccc3c2=O)c1 | inactive | 
14 | CCOC(=O)/C(=C/c1c[nH]c2ccccc12)NC(C)=O | inconclusive [inhibitor, partial curve] | 
15 | COc1ccc(-c2c(-c3ccccc3OC)sc3ccccc23)cc1 | inactive | 
16 | CCCCC[C@H](C)N1C[C@H](COCc2ccccc2)Oc2cc(N3CC[C@H](N(C)C)C3)ccc2S1(=O)=O | inconclusive [inhibitor, partial curve] | 
17 | CCCS(=O)(=O)N1CCN(Cc2ccccc2[N+](=O)[O-])CC1 | inconclusive [inhibitor, single point] | 
18 | COc1ccc(C)cc1Nc1nc(N)c2cc(OC)c(OC)cc2n1 | inconclusive [inhibitor, single point] | 
19 | O=C(Nc1ccc(C2=NCCN2)cc1)c1ccc(C(=O)Nc2ccc(C3=NCCN3)cc2)c([N+](=O)[O-])c1 | inconclusive [inhibitor, single point] | 
20 | COc1ccc(OCc2cc(C(=O)N3CCCC(CO)C3)no2)c2ccccc12 (centres undefined) | inactive | 
21 | Cc1cccc(C)c1NC(=O)C1(C)CN(S(C)(=O)=O)CC(=O)N1CCOc1ccccc1 (centres undefined) | inactive | 
22 | CCN(CC)C(=O)Cn1cc(C(=O)C(=O)N(C)C2CCN(C)CC2)c2ccccc21 | inactive | 
23 | COc1cc2nc(N3CCNCC3)nc(N)c2cc1OC | inconclusive [inhibitor, single point] | 

Row | Compound | Potency | activity change, negative = inhibition
24 | Cc1csc(NC(=O)CSc2nncn2C)n1 | inactive | 
25 | CC(=O)Nc1ccc(N=Nc2ccccc2)cc1[N+](=O)[O-] | inconclusive [inhibitor, full curve, poor fit] | 
26 | COC(=O)Cc1ccc(N(Cc2ccccc2F)S(=O)(=O)c2ccc(C)cc2)cc1 | inconclusive [inhibitor, single point] | 
27 | O=C(CO/N=C\c1ccccc1)Nc1ccccc1C(=O)N1CCOCC1 | inactive | 
28 | CCCN(c1ccc(C)cc1)c1nc(=O)c2cccnc2s1 |  | inconclusive: -11.4% [inhibitor]
29 | COc1cccc(C(=O)N2CCC(N3CC(C)OC(C)C3)CC2)c1 (centres undefined) | inconclusive [inhibitor, partial curve] | 
30 | c1ccc(NC2=NCCS2)cc1 | inactive | 
31 | COCCCC1CCN(Cc2nc(-c3ccccc3)no2)CC1 | inactive | 
32 | Oc1ccc(/C=N/Nc2cc(N3CCOCC3)nc(N3CCOCC3)n2)cc1O | inactive | 
33 | COc1ccc(N2CCN(c3oc(-c4ccccc4OC)nc3C#N)CC2)cc1 | inconclusive [inhibitor, partial curve] | 
34 | COc1ccccc1C(=O)N/C(=C\c1cn(C)c2ccccc12)C(=O)NCCCN1CCOCC1 | inactive | 
35 | CCc1c(-c2cccc(OC)c2)ncn1Cc1cccc(-c2ccccc2)c1 | inconclusive [inhibitor, partial curve, poor fit] | 
36 | Cc1cccc(-c2ncc(S(=O)(=O)C(C)(C)C)c(N)n2)c1 | inactive | 
37 | O=C(c1ccc(Br)s1)N1CCc2ccccc2C1 | inactive | 
38 | CC1COCC(C)N1C1=C(Cl)C(=O)c2ccccc2C1=O (centres undefined) | inconclusive [inhibitor, partial curve] | 
39 | CCOC(=O)c1cc(-c2ccc(/C=C3/C(=O)N(c4ccc(C(=O)O)cc4)N=C3C)o2)ccc1Cl | inconclusive [inhibitor, single point] | 
40 | COC(=O)c1ccc(CSc2nnc(-c3ccc4c(c3)OCO4)n2-c2ccccc2)o1 | inconclusive [inhibitor, partial curve] | 
41 | COc1ccc(N2CCN(Cc3nc(-c4ccccc4)no3)CC2)cc1 | inconclusive [inhibitor, partial curve] | 
42 | Oc1ccc(/C=N/Nc2nn3cnnc3c3ccccc23)cc1 | inactive | 
43 | Cc1cccc(N/N=C(\C(N)=O)C2=NC(C)(C)Cc3ccccc32)c1 | inconclusive [inhibitor, single point] | 
44 | CCOC(=O)c1c(C)sc(Sc2ccc(Cl)cc2[N+](=O)[O-])c1OC | inconclusive [inhibitor, partial curve] | 
45 | CN(C)c1ccc(N=C/C=C2/N(C)c3ccccc3C2(C)C)cc1 | inconclusive [inhibitor, single point] | 
46 | Cc1ccc(S(=O)(=O)NC2=C(N3CCN(c4ccccc4F)CC3)C(=O)c3ccccc3C2=O)cc1 | inconclusive [inhibitor, full curve] | 

Row | Compound | Potency | activity change, negative = inhibition
47 | COc1nc(NCCc2ccc(OC)c(OC)c2)nc(Nc2ccccc2)n1 | inconclusive [inhibitor, partial curve] | 
48 | COc1ccccc1CN=c1c([N+](=O)[O-])nn(-c2ccc3c(c2)OCCO3)n1O | inconclusive [inhibitor, single point] | 
49 | CC1(C(=O)NNC(=O)c2cccc([N+](=O)[O-])c2)CC1(Br)Br (centres undefined) | inactive | 
50 | CCc1ccccc1CC1CN(Cc2ccccc2)Cc2ccccc2N1c1ccc(OC)cc1 (centres undefined) | inconclusive [inhibitor, full curve] | 
51 | CC/C(=C(\c1ccc(O)cc1)c1ccc(OCCN(C)C)cc1)c1ccccc1 | inconclusive [inhibitor, single point] | 
52 | c1ccc(CNc2nc(N3CCN(Cc4ccccc4)CC3)nc3ccccc23)cc1 | inconclusive [inhibitor, partial curve] | 
53 | Cc1cc(N)n(-c2cc(C)c3ccccc3n2)n1 | inconclusive [inhibitor, single point] | 
54 | Cn1c2ccccc2c2c(C(=O)N3CCN(c4ccccc4)CC3)cn(C3CCCC3)c(=O)c21 | inconclusive [inhibitor, full curve, poor fit] | 
55 | CC(C)(C)c1cc(Cl)ccc1OCCn1ccnc1 | inconclusive [inhibitor, single point] | 
56 | COc1ccc(N2CCN(C(CNC(=O)OCc3ccccc3)c3ccco3)CC2)cc1 (centres undefined) | inconclusive [inhibitor, single point] | 
57 | CCOc1ccc2nc(SC3CC(=O)N(c4ccccc4)C3=O)sc2c1 (centres undefined) | inactive | 
58 | CC(=O)NC(Cc1ccc(N(CCCl)CCCl)cc1)C(=O)O (centres undefined) | inconclusive [inhibitor, single point] | 
59 | CN(C)c1ccc(/C=N\NC(=O)c2cccc3cc[nH]c23)cc1 | inactive | 
60 | C#CCOCCOCCOCCNc1nc(N2CCN(C(=O)CCCCCCCCCCNC(=O)[C@H](CCCCN)n3cc(C[C@@H](C)CC)nn3)CC2)nc(N2CCN(C(=O)CCCCCCCCCCNC(=O)[C@@H]([C@H](C)O)n3cc(C)nn3)CC2)n1 | inconclusive [inhibitor, single point] | 
61 | COc1ccc(Nc2nc(NC(C)(C)C)nc(N3CCOCC3)n2)c(OC)c1 | inconclusive [inhibitor, partial curve] | 
62 | Cc1ccc(OCc2nnc(SCC(=O)O)n2-c2ccccc2)cc1 | inactive | 
63 | COc1ccc2c(c1)c(CCN)c(C)n2Cc1ccccc1 | inconclusive [inhibitor, partial curve] | 
64 | CC(=O)C1=C(c2ccc(Br)cc2)C(=O)c2ccccc2C1=O | active: 15.8 µM | 
65 | COc1ccc(-n2cc(CNCCc3cscn3)c(-c3ccccc3Cl)n2)cc1 | inconclusive [inhibitor, partial curve] | 
66 | CC1(c2ccc(Cl)cc2Cl)OCC(Cn2ccnc2)O1 (centres undefined) | inconclusive [inhibitor, partial curve] | 
67 | COc1ccccc1NC(=S)N1CCN(C/C=C/c2ccccc2)CC1 | inconclusive [inhibitor, partial curve] | 
68 | COc1ccccc1NS(=O)(=O)c1cccc2cccnc12 | inconclusive [inhibitor, single point] | 
69 | COc1cccc(N2CCN(C(=O)CN(c3cc(C)cc(C)c3)S(=O)(=O)c3c(C)noc3C)CC2)c1 | inactive | 
